The values that follow come from the BET-seq Pho4 binding data (Le et al. 2018).

The other results are listed elsewhere or left out. Values were computed here from the reads of four pooled replicates and scatter widely.

For the assay, the target named is T1, Pho4 (S. cerevisiae) (UniProt P07270).
T1 sequence: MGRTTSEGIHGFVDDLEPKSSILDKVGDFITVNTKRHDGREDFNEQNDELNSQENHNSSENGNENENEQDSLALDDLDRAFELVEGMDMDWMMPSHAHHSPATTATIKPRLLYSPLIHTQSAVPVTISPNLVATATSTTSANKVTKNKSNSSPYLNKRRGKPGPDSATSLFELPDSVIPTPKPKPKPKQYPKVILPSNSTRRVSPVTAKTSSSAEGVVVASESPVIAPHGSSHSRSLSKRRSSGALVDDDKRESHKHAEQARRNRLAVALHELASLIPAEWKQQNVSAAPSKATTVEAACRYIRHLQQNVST
Description: relative binding free energy (BET-seq); higher = weaker binding. As to conditions: reference: library average.
With AGCTGCACGTGTGAGT, the “relative binding free energy” value is 0.05 kcal/mol.
In the case of GGTTGCACGTGGCGTT, the “relative binding free energy” value is -0.06 kcal/mol.
As for ATAGGCACGTGTTGCT, the “relative binding free energy” value is -0.18 kcal/mol.
With AGCGGCACGTGGTGTT, the “relative binding free energy” value is -0.13 kcal/mol.
For the sequence GTGATCACGTGTCATT, the “relative binding free energy” value is 0.22 kcal/mol.
Next, AAAGTCACGTGTTGGA: 0.17 kcal/mol; AAGTGCACGTGCGCTG: 0 kcal/mol; GTTGTCACGTGCTTAG: 0.12 kcal/mol.
Next, GGGCGCACGTGTGCGT: -0.07 kcal/mol.
As for GGGTGCACGTGGGTAA, the “relative binding free energy” value was -0.06 kcal/mol.
As for GGACTCACGTGATTGG, the “relative binding free energy” value was 0.41 kcal/mol.
Next, AGAGGCACGTGGGTAG: -0.24 kcal/mol; TTAATCACGTGTGCGT: -0.02 kcal/mol.
With GATAACACGTGTGATG, the “relative binding free energy” value is 0.1 kcal/mol.
As for TGGGCCACGTGAGTGG, the “relative binding free energy” value worked out at 0.02 kcal/mol.
On to AGGTTCACGTGCAAGT, for which the “relative binding free energy” value was determined as 0.18 kcal/mol.
As for ACTGGCACGTGTGGCT, the “relative binding free energy” value is -0.06 kcal/mol.
The result for AATTACACGTGTATTG reads 0.08 kcal/mol; that for TGTGGCACGTGTGGCT, 0.04 kcal/mol; that for TAGTTCACGTGTACTA, 0.32 kcal/mol.
On to ATCGTCACGTGGCTGG, for which the “relative binding free energy” value stood at 0.04 kcal/mol.
As for TAAGACACGTGGTGGG, the “relative binding free energy” value turned out to be 0.02 kcal/mol.
Take GAGGCCACGTGTTTGG: the “relative binding free energy” value came out at 0.02 kcal/mol.
The result for GTATGCACGTGTGCTT reads 0.03 kcal/mol.
Consider CGGAGCACGTGGTAGG, for which the “relative binding free energy” value is -0.19 kcal/mol.
Turning to ACTAGCACGTGTTGTG, the “relative binding free energy” value is -0.11 kcal/mol.
On to TTGGACACGTGACTGG, for which the “relative binding free energy” value is 0.18 kcal/mol.
Consider GTATGCACGTGGGGTA, for which the “relative binding free energy” value was -0.1 kcal/mol.
The result for TTTAGCACGTGATGGG reads 0 kcal/mol; that for GGCAGCACGTGGGGAA, -0.05 kcal/mol.
ATTGTCACGTGACTAG: the “relative binding free energy” value amounted to 0.23 kcal/mol.
On to AGAGTCACGTGCAGTT, for which the “relative binding free energy” value was 0.13 kcal/mol.
With ATCGGCACGTGCGGAG, the “relative binding free energy” value is 0.01 kcal/mol.
The result for TATGGCACGTGTGAGC reads 0.02 kcal/mol; that for TATAACACGTGTTAAG, -0.01 kcal/mol.
In the case of AATTTCACGTGCGAGG, the “relative binding free energy” value was determined as 0.35 kcal/mol.
Next, GATAACACGTGTGGTG: 0.14 kcal/mol; TCTTACACGTGCGGTT: 0.11 kcal/mol.
Next, TCGGACACGTGCTGTT: 0.16 kcal/mol; GCGGTCACGTGGATCT: 0.43 kcal/mol; GTTTTCACGTGGCAAG: 0.32 kcal/mol.
For TGTTACACGTGTTATA, the “relative binding free energy” value was 0.07 kcal/mol.
Regarding TGCGGCACGTGGTATA, the “relative binding free energy” value was -0.07 kcal/mol.
In the case of GGATTCACGTGTTACT, the “relative binding free energy” value is 0.45 kcal/mol.
On to GTTTGCACGTGTAGTC, for which the “relative binding free energy” value amounted to 0.17 kcal/mol.
For GGGCGCACGTGACGTG, the “relative binding free energy” value was 0.02 kcal/mol.
The result for TGTTGCACGTGTATTA reads 0.1 kcal/mol; that for TGGCCCACGTGGGGAG, -0.19 kcal/mol.
As for TTGACCACGTGTTAGG, the “relative binding free energy” value was 0.03 kcal/mol.
Next, TGGTGCACGTGTTATC: -0.1 kcal/mol.
Next, AATATCACGTGTTGGG: -0.04 kcal/mol; ACGAGCACGTGTGGTG: -0.07 kcal/mol; AACGTCACGTGTTGAA: 0.27 kcal/mol.
In the case of TAAAGCACGTGCAGGG, the “relative binding free energy” value is -0.2 kcal/mol.
In the case of GTGGGCACGTGAAAGT, the “relative binding free energy” value worked out at 0.13 kcal/mol.
Take ATTGGCACGTGGGTCT: the “relative binding free energy” value was -0.23 kcal/mol.
Next, TCGGGCACGTGGTAAA: -0.04 kcal/mol; ATCGACACGTGGGGTA: -0.08 kcal/mol; GGTAACACGTGTGCTG: 0 kcal/mol.
Next, GTGGTCACGTGTTCTA: 0.04 kcal/mol; TCCGTCACGTGTGGGG: 0.26 kcal/mol.
Turning to TGTCACACGTGTTTAT, the “relative binding free energy” value was found to be 0.05 kcal/mol.
On to TGAGGCACGTGCGGAG, for which the “relative binding free energy” value is -0.24 kcal/mol.
With TTACGCACGTGAGTTG, the “relative binding free energy” value was determined as 0.16 kcal/mol.
As to GGCGGCACGTGCGGGA, the “relative binding free energy” value was -0.11 kcal/mol.
On to TCCGGCACGTGTTGGG, for which the “relative binding free energy” value is 0.03 kcal/mol.
For the sequence ACGTTCACGTGTGGGG, the “relative binding free energy” value is 0.25 kcal/mol.
Take ATATACACGTGTTAGG: the “relative binding free energy” value was found to be 0.03 kcal/mol.
As for TTGGTCACGTGGGTCA, the “relative binding free energy” value stood at 0.04 kcal/mol.
In the case of TTTAACACGTGTGCTG, the “relative binding free energy” value is -0.05 kcal/mol.
As for CAGAGCACGTGTTGTG, the “relative binding free energy” value was -0.22 kcal/mol.
Regarding TGGACCACGTGGTAGG, the “relative binding free energy” value was -0.06 kcal/mol.
For AATATCACGTGCTTGG, the “relative binding free energy” value is 0.17 kcal/mol.
Regarding GTAGGCACGTGCGGCT, the “relative binding free energy” value was -0.07 kcal/mol.
On to TGTATCACGTGTAATT, for which the “relative binding free energy” value came to 0.27 kcal/mol.
Next, TGTCACACGTGTGGGT: 0.08 kcal/mol.
Take CTGTACACGTGAGTAT: the “relative binding free energy” value was 0.28 kcal/mol.
As for GGTGACACGTGGGTTA, the “relative binding free energy” value worked out at 0.08 kcal/mol.
TTTGACACGTGAGTGT: the “relative binding free energy” value stood at 0.18 kcal/mol.
Take CTAGACACGTGGTGGG: the “relative binding free energy” value was -0.06 kcal/mol.
With TTGGGCACGTGCGGGC, the “relative binding free energy” value was -0.18 kcal/mol.
Next, GTTATCACGTGCTGTA: -0.01 kcal/mol; GAATACACGTGTGAGT: 0.24 kcal/mol; TTGGCCACGTGTGTTG: -0.08 kcal/mol.
For the sequence ACGTGCACGTGCGGTT, the “relative binding free energy” value stood at 0.04 kcal/mol.
Turning to GATTACACGTGCGGGG, the “relative binding free energy” value is 0.09 kcal/mol.
As for GCTTACACGTGATGTG, the “relative binding free energy” value was found to be 0.29 kcal/mol.
Take ATGGTCACGTGTGTGG: the “relative binding free energy” value stood at 0.05 kcal/mol.
Consider TTGTGCACGTGGGGAA, for which the “relative binding free energy” value was -0.07 kcal/mol.
In the case of CGCGGCACGTGATGTA, the “relative binding free energy” value is 0.09 kcal/mol.
Next, TGTGCCACGTGGATGT: -0.06 kcal/mol; TATCGCACGTGGGCTG: -0.21 kcal/mol.
Regarding AGGTGCACGTGCATTG, the “relative binding free energy” value was determined as 0.02 kcal/mol.
Regarding TTCATCACGTGCTGTT, the “relative binding free energy” value turned out to be 0.17 kcal/mol.
TATTTCACGTGACGTG: the “relative binding free energy” value turned out to be 0.32 kcal/mol.
In the case of AAGGGCACGTGAGTCG, the “relative binding free energy” value was -0.08 kcal/mol.
As to ATGGGCACGTGCTAGG, the “relative binding free energy” value was -0.33 kcal/mol.
With TCTAACACGTGAGTGT, the “relative binding free energy” value came to 0.15 kcal/mol.
Next, GCCGGCACGTGGTTAG: -0.1 kcal/mol; TTTCTCACGTGTGGGC: 0.36 kcal/mol.
Take TTAGTCACGTGGTTTA: the “relative binding free energy” value amounted to 0.04 kcal/mol.
GGGGGCACGTGTTGCT: the “relative binding free energy” value was determined as 0 kcal/mol.
Next, TGGAGCACGTGACGGA: 0.02 kcal/mol.
As to GTTATCACGTGGGCGC, the “relative binding free energy” value came to 0.12 kcal/mol.
As to GGCGGCACGTGGGTAT, the “relative binding free energy” value is -0.11 kcal/mol.
On to GAAGTCACGTGTGAAT, for which the “relative binding free energy” value stood at 0.28 kcal/mol.
Next, TGTTTCACGTGGTCCA: 0.17 kcal/mol.
On to AGTACCACGTGTGTGG, for which the “relative binding free energy” value is -0.1 kcal/mol.
In the case of CGTGACACGTGATTTT, the “relative binding free energy” value turned out to be 0.06 kcal/mol.
The result for AGCGACACGTGTTTGT reads 0.05 kcal/mol.
With TATATCACGTGCTTAG, the “relative binding free energy” value stood at 0.04 kcal/mol.
TCAGGCACGTGTGTGA: the “relative binding free energy” value is -0.12 kcal/mol.
Take TGTGGCACGTGAATGC: the “relative binding free energy” value came out at 0.1 kcal/mol.
Turning to TCAGCCACGTGTGGGG, the “relative binding free energy” value was determined as 0.02 kcal/mol.
Regarding TGTTACACGTGGCGCT, the “relative binding free energy” value worked out at 0.13 kcal/mol.
